The target of experiment [1] is T1, IL-17RC (endogenous, mouse ST2 cells) (mouse (endogenous in ST2)) (UniProt Q8K4C2).
T1 sequence (chain, glycosylated (forms of approximately 100 kDa and 150 kDa)): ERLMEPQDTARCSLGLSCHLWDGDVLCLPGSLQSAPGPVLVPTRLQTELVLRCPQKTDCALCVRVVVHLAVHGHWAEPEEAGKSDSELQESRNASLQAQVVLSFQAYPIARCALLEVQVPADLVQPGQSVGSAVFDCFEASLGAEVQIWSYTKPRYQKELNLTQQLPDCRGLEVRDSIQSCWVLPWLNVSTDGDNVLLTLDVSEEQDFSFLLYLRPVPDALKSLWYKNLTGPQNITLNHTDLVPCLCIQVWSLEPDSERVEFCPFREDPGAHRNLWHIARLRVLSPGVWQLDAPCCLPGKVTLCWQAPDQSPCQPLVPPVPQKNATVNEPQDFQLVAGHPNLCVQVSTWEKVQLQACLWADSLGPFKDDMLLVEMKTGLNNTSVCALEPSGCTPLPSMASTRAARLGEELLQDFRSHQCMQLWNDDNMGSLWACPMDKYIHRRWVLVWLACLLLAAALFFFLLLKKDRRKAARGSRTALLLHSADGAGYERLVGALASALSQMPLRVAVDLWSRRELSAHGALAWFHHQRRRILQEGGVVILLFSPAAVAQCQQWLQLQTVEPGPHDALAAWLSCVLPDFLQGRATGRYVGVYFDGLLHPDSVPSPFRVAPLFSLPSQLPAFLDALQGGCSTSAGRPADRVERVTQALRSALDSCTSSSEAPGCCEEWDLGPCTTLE
As to the kind of experiment: co-IP; IP with IL-17RC antibody (isotype control antibody beside it) and Protein A/G PLUS agarose from lysates of ST2 cells, unstimulated or stimulated with IL-17A (500 ng/ml, 15 min), immunoblot. (In general: A western blot detects proteins with antibodies after separation by electrophoresis.)

Amino acid sequences for entries named in this document (tags omitted). A change or cut given only in a name is not applied to a line headed by its entry.
UniProt Q60943: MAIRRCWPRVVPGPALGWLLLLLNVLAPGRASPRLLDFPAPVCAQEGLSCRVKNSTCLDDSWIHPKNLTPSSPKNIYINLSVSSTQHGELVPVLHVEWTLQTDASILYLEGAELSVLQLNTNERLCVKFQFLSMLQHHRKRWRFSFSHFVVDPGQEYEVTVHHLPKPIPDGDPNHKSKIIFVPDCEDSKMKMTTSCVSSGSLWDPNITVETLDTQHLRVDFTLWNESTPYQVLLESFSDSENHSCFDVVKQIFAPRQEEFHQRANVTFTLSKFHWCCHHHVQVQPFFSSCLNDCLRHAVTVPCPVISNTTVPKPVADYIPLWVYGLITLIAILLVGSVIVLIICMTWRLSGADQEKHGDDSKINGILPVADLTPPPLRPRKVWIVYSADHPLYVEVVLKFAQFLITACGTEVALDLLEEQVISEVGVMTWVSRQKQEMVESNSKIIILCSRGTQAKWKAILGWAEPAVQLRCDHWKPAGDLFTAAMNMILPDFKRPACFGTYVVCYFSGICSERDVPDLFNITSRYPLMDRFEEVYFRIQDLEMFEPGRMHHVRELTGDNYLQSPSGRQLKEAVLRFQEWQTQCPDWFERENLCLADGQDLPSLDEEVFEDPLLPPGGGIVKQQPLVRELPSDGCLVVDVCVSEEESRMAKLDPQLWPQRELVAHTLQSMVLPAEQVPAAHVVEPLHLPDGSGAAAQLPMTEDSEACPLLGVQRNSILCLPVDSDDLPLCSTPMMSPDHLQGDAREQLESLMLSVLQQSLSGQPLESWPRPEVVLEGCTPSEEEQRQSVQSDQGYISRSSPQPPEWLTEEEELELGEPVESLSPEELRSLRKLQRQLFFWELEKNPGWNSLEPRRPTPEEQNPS
UniProt Q8CJ61: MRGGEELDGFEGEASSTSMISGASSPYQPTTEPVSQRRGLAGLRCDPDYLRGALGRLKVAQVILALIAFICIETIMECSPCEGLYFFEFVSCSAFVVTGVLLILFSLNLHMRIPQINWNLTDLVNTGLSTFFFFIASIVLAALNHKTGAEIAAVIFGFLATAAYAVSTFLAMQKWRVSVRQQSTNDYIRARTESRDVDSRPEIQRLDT

Experiment [2] concerns the target T2, SF-IL-17RC^MutE (all nine putative N-glycosylation sites mutated) (mouse) (UniProt Q8K4C2).
T2 sequence (chain, fully deglycosylated form of 85 kDa): T1 sequence (chain, glycosylated (forms of approximately 100 kDa and 150 kDa)) with N93Q, N161Q, N188Q, N228Q, N234Q, N238Q, N324Q, N380Q, N381Q
As to the kind of experiment: co-IP; anti-FLAG M2 agarose IP from 1% DDM lysates of ST2 cells retrovirally transduced with an SF-tagged receptor, immunoblot for endogenous proteins; cells unstimulated (SF-IL-17RC also after IL-17A 500 ng/ml for 15 min, unchanged).

Experiment [3] has as its target T3, SF-IL-17RC^TmRA (IL-17RC with the transmembrane domain of IL-17RA) (mouse) (UniProt Q8K4C2+Q60943).
T3 sequence: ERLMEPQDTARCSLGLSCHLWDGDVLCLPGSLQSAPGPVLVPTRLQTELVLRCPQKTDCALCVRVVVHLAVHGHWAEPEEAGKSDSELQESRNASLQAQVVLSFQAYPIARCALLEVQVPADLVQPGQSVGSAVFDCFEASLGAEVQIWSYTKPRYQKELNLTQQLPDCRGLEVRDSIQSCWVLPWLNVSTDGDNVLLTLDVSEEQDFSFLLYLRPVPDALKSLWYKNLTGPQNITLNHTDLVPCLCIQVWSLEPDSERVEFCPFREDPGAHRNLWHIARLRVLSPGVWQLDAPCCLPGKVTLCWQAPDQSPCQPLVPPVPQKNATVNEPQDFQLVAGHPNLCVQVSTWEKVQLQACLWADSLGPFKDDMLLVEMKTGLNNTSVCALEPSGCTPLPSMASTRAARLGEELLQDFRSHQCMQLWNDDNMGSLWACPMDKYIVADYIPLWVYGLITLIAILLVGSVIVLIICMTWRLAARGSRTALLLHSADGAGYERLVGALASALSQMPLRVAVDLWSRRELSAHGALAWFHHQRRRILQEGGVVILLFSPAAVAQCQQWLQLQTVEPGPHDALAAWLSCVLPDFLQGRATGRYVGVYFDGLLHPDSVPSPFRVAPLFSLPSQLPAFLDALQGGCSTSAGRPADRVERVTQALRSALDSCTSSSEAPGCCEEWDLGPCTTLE
The experiment is described as above.

The target in experiment [4] is T4, SF-IL-17RC (murine IL-17RC with C-terminal 2xStrep-3xFlag tag), in ST2 cells (mouse) (UniProt Q8K4C2).
T4 sequence (chain, N-glycosylated (100 kDa and 150 kDa forms)): T1 sequence (chain, glycosylated (forms of approximately 100 kDa and 150 kDa))
Described as above.

In article PMC9663306 one finds binding data, which are given here for one substance.

Substitutions are numbered along the chain they refer to. These are yes or no findings as the source states them, for the method shown. Binding seen in cells or lysates may run through a third protein. Some results given as binding are weak or reduced against the parent protein; the word gives no strength. For some of these results: Sequences can lack the tags named with a protein.

As for “CMTM4 (endogenous, mouse ST2 cells) (from UniProt Q8CJ61 1-208)”, the binding entry in experiment [1] is “binds”; in experiment [2], “binds”; in experiment [3] it was “no binding”; in experiment [4], “binds”.
